Test: Stability in human plasma (enzymatic hydrolysis)
Details: 37°C, substrate 5×10^-4M with 2% ACN; for 1/2: half-life in human plasma diluted to 80%; for kobs × 100: human plasma diluted to 80%, 72h, values are kobs × 100

Row | SMILES | 1/2 [h] | kobs × 100 [h^-1]
1 | CCCCOC(=O)c1ccccc1 [Compound 1a, Butyl benzoate] | 1.59 ± 0.21 | 44.1 ± 6.1
2 | CCCCCCOC(=O)c1ccccc1 [Compound 1b, Hexyl benzoate] | 6.00 ± 0.61 | 11.6 ± 1.2
3 | CCCCCCCCOC(=O)c1ccccc1 [Compound 1c, Octyl benzoate] | 26.1 ± 2.4 | 2.66 ± 0.23
4 | CCCCCCCCOC(=O)c1ccc([N+](=O)[O-])cc1 [Compound 2c, Octyl 4-nitrobenzoate] | 7.18 ± 0.9 | 9.73 ± 1.20
5 | CCCCOC(=O)c1cc([N+](=O)[O-])cc([N+](=O)[O-])c1 [Compound 3a] | 8.59 ± 0.31 | 8.08 ± 0.29
6 | CCCCCCOC(=O)c1cc([N+](=O)[O-])cc([N+](=O)[O-])c1 [Compound 3b] | 12.3 ± 1.0 | 5.68 ± 0.47
7 | CCCCCCCCOC(=O)c1cc([N+](=O)[O-])cc([N+](=O)[O-])c1 [Compound 3c] | 19.9 ± 2.6 | 3.53 ± 0.44
8 | CCCCCCCCCCOC(=O)c1cc([N+](=O)[O-])cc([N+](=O)[O-])c1 [Compound 3d, Decyl 3,5-dinitrobenzoate] | 71.0 ± 4.7 | 0.98 ± 0.07
9 | CCCCCCCCCCCCOC(=O)c1cc([N+](=O)[O-])cc([N+](=O)[O-])c1 [Compound 3e] | 78.4 ± 11.7 | 0.89 ± 0.13
10 | CCCCCCCCCCCCCCOC(=O)c1cc([N+](=O)[O-])cc([N+](=O)[O-])c1 [Compound 3f] | 74.1 ± 18.7 | 0.97 ± 0.23
11 | CCCCOC(=O)c1cc([N+](=O)[O-])cc(C(F)(F)F)c1 [Compound 4a, Butyl 3-nitro-5-(trifluoromethyl)benzoate] | 5.63 ± 0.88 | 12.5 ± 1.8
12 | CCCCCCOC(=O)c1cc([N+](=O)[O-])cc(C(F)(F)F)c1 [Compound 4b, Hexyl 3-nitro-5-(trifluoromethyl)benzoate] | 12.0 ± 2.4 | 5.96 ± 1.28
13 | CCCCCCCCOC(=O)c1cc([N+](=O)[O-])cc(C(F)(F)F)c1 [Compound 4c, Octyl 3-nitro-5-(trifluoromethyl)benzoate] | 30.1 ± 0.9 | 2.30 ± 0.06
14 | CCCCCCCCCCOC(=O)c1cc([N+](=O)[O-])cc(C(F)(F)F)c1 [Compound 4d, Decyl 3-nitro-5-(trifluoromethyl)benzoate] | 55.0 ± 1.7 | 1.26 ± 0.04
